Measured values published in PubChem BioAssay AID686970 (National Center for Advancing Translational Sciences (NCATS), 2013).
In all, about 360,000 compounds went through this assay and about 6,000 (1.7%) were called active. Inconclusive results, whose numbers are uncertain, are shown with a selection of clear calls. Calls follow the shape of the dose curve; as a rule, active = well fitted cell-killing curve with a large enough effect; inconclusive = small, poorly fitted or top-dose-only effect, or effect the other way; inactive = flat fitted curve, though single readings scatter. Potencies of inconclusive entries are left out as doubtful fits.

Experiment: qHTS for induction of synthetic lethality in tumor cells producing 2HG: qHTS for the HT-1080-NT fibrosarcoma cell line;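 also: NT is the 2HG producing partner of a matched IDH1 knockdown line; nearly all actives have a fitted effect of over 55% in size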;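 as to activity, negative = less viability: 0% = DMSO-treated cells and -100% = media-only wells without cells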
Conditions: HT-1080-NT fibrosarcoma viability, CellTiter-Glo ATP luminescence, 48 h; activity, negative = less viability: at 46.1 µM (top of the series) unless noted
Procedure, shortened: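 Luminescent CellTiter-Glo readout after 48 hours of compound exposure at 37 degrees C defined viability of HT-1080-NT cells. Activity was normalized to DMSO wells and cell-free media wells; concentration-response curves were fitted and assigned curve classes.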
Potency is read from the fitted curve at half-maximal effect; tags tell the direction and shape of the fitted curve.

SMILES	Potency	activity, negative = less viability
CCOc1ccc(-n2c(SCC(=O)Nc3ccc(Br)cc3)nc3n[nH]c(C)c3c2=N)cc1	active: 14.6 µM	–
CC(C)(C)OC[C@H](NC(=O)c1[nH]cnc1C(=O)Nc1ccccc1F)C(=O)OC(C)(C)C	inconclusive [cytotoxic, single point]	–
Cc1ccc(NC(=O)C2=C(c3ccccc3)S(=O)(=O)CCS2(=O)=O)cc1	active: 10.3 µM	–
Cn1c(NCCN2CCCC2)nc2cc(-c3cccc(C(F)(F)F)c3)sc2c1=O	active: 20.6 µM	–
CCCCn1c(N)c(N(CCC(C)C)C(=O)c2ccc(-c3ccc([N+](=O)[O-])cc3)o2)c(=O)[nH]c1=O	–	inactive: 0.0271%
CCOc1c(Cl)cc(C(=O)NCCN2CCCCC2)cc1Cl	inconclusive [cytotoxic, single point]	–
COc1ccc(C(=O)NC(=O)COC(=O)C2COc3ccccc3O2)cc1 (stereo not given)	–	inactive: 1.52%
CCN(C[C@H]1N[C@@](C)(C(=O)OC)[C@H]2C(=O)N(C)C(=O)[C@@H]12)C(=O)c1ccc(C(C)(C)C)cc1	–	inactive: 6.54%
O=C(c1ccco1)N1CCN(C(=S)Nc2ccccc2C(F)(F)F)CC1	inconclusive [cytotoxic, single point]	–
Cc1cc(N2CCCC2)nc2ccc(NC(=S)NCCCN3CCC(C)CC3)cc12	active: 23.1 µM	–
COCCNc1ncnc2c1ncn2[C@H]1CN(CCc2ccccc2)C[C@@H](CO)O1	inconclusive [rising, partial curve]	–
COc1ccc(-c2nnc(Nc3nc4c(OC)cccc4s3)o2)c(OC)c1	active: 3.98 µM	–
CN(C(=O)COC(=O)c1ccc([N+](=O)[O-])cc1N)c1ccccc1	inconclusive [rising, full curve]	–
O=C(Cc1cccc2ccccc12)N/N=C/c1ccncc1	–	inactive: -2.46%
O=C(OCc1cncs1)c1ccccc1	–	inactive: 14.7%
Cc1ccnc(NS(=O)(=O)c2ccc(NC(=O)C34CC5CC(CC(C5)C3)C4)cc2)n1	–	inactive: -1.46%
COc1cc(-c2cnc3c(NC(C)=O)cc(-c4ccc(N5CCN(C)CC5)cc4)cn23)cc(OC)c1OC	inconclusive [cytotoxic, single point]	–
O=C(C[C@H]1C[C@H](C(=O)N2CCCCC2)[C@@]2(CCc3ccccc3)c3[nH]c4cc(-c5ccco5)ccc4c3CCN2C1=O)NCCN1CCOCC1	inconclusive [cytotoxic, single point]	–
CC(C)(C)NC(=S)Nc1ccc(Nc2ccccc2)cc1	active: 5.62 µM	–
C[C@H](CO)N1C[C@H](C)[C@H](CN(C)C(=O)c2ccncc2)OCc2ccccc2-c2c(n(C)c3ccccc23)C1=O	–	inactive: -7.32%
Cc1ccc(C)c(N(CC(=O)Nc2ccccc2C(=O)NCc2ccco2)S(=O)(=O)c2ccccc2)c1	–	inactive: -7.39%
CN1c2ccccc2C(C)(C)[C@]12C=Cc1cc(O)ccc1O2	inconclusive [cytotoxic, single point]	–
CCOC(=O)C1(CC2CCCCO2)CCN(S(=O)(=O)c2cccc(F)c2)CC1 (stereo not given)	–	inactive: -7.45%
CC1(C)CC(=O)C=C(c2ccc(-c3ccc(OC(F)(F)F)cc3)cc2)C1=O	inconclusive [cytotoxic, single point]	–

SMILES	Potency	activity, negative = less viability
CCCNC(=O)c1ccccc1NC(=O)CN(c1ccccc1)S(=O)(=O)N(C)C	–	inactive: 18.6%
CCOC(=O)Cc1cc(=O)n2[nH]c(C)c(-c3ccc(Cl)cc3)c2n1	inconclusive [cytotoxic, single point]	–
Oc1ccccc1-c1nc2c3ccccc3c3ccccc3c2[nH]1	inconclusive [cytotoxic, single point]	–
Cn1c(=O)c2c(nc(N3CCc4ccccc4C3)n2Cc2ccccc2F)n(C)c1=O	–	inactive: -0.149%
CCCC(CCC)C(=O)Oc1cc(C)[nH]c(=O)c1[N+](=O)[O-]	–	inactive: 9.81%
CSc1ccc(S(=O)(=O)NCc2ccc(Cl)cc2Cl)cc1	inconclusive [cytotoxic, single point]	–
COc1ccc(-c2noc3c2-c2nc(-c4ccccc4C)sc2CC3)cc1	active: 13 µM	–
CC(=O)NC(CC(=O)N1CCN(C(C)=O)CC1)c1ccccc1 (stereo not given)	inconclusive [rising, single point]	–
COc1ccc(C(=O)N2CC3(C)CC2CC(C)(C)C3)cc1 (stereo not given)	–	inactive: -7.27%
CC1(C(=O)Nc2ccc3[nH]ncc3c2)CCN1C(=O)Cc1ccc(-c2ccccc2)cc1 (stereo not given)	inconclusive [cytotoxic, single point]	–
O=C(CN1CCN(S(=O)(=O)c2ccccc2F)CC1)Nc1ccccc1C(=O)c1ccccc1	inconclusive [cytotoxic, single point]	–
O=C(Nc1ccc(N2CCN(C(=O)c3ccc(Cl)cc3)CC2)cc1)c1ccc([N+](=O)[O-])o1	active: 10.3 µM	–
CN1CCC(NC(=O)c2cc(-c3cccc(Br)c3)nc3ccccc23)CC1	active: 20.6 µM	–
CC1(C)Oc2ccc(C(=O)N/N=C/c3ccc(O)cc3)cc2NC1=O	inconclusive [cytotoxic, single point]	–
Cc1c(C)c(C)c(S(=O)(=O)N2CCNCC2)c(C)c1C	–	inactive: -35%
COc1cc2ccccc2cc1C(=O)Nc1ccc(N2CCN(C)CC2)cc1	inconclusive [cytotoxic, single point]	–
COc1ccc(S(=O)(=O)N2CCCCCC2)cc1C(=O)N(C)CCOc1ccc(Cl)cc1	inconclusive [cytotoxic, single point]	–
CCc1ccc(N(CC(=O)Nc2nc3ccc(C)cc3s2)S(=O)(=O)c2c(C)noc2C)cc1	inconclusive [cytotoxic, single point]	–
Cc1ccc(C(O)c2ncc(-c3cccc(C(F)(F)F)c3)[nH]2)cc1F (stereo not given)	inconclusive [cytotoxic, partial curve]	–
O=C1C=C(Nc2ccc(Cl)cc2)CC(c2ccc(Cl)cc2)C1 (stereo not given)	inconclusive [cytotoxic, single point]	–
CC(C)(C)S(=O)(=O)/C(C#N)=N/Nc1ccc(Cl)cc1	inconclusive [cytotoxic, single point]	–
C#CCN(C)CCCOc1ccc(Cl)cc1Cl	–	inconclusive: 13.3%
Cn1c(=O)[nH]c(=O)c2c1nc(Br)n2CCSc1nnnn1-c1ccccc1	inconclusive [cytotoxic, single point]	–
COc1ccccc1Cc1c(-c2ccc(OC)c(OC)c2)nc2cc(C)c(Br)c(C)n12	inconclusive [cytotoxic, single point]	–

SMILES	Potency	activity, negative = less viability
CC(C)(CO)Cc1cc(C(C)(C)C)c(O)c(C(C)(C)C)c1	inconclusive [cytotoxic, partial curve]	–
COc1ccc(NC(=O)c2cc(-c3cc(F)ccc3OC)n[nH]2)cc1OC	inconclusive [cytotoxic, full curve]	–
COc1ccccc1CNCc1cc(=O)oc2c(C)c(C)ccc12	inconclusive [cytotoxic, single point]	–
Cc1cccc(C(=O)N2CCC(C)(C(=O)NS(=O)(=O)C3CC3)C2)c1C (stereo not given)	inconclusive [rising, single point]	–
COc1ccc(/C(N)=N/OC(=O)c2ccc(C)c([N+](=O)[O-])c2)cc1OC	inconclusive [rising, full curve]	–
O=C(/C=C/c1ccco1)Nc1ccccn1	inconclusive [cytotoxic, partial curve]	–
C=C(C)COc1ccc(-c2[nH]ncc2-c2ccc(OC)c(OC)c2)c(O)c1	active: 7.31 µM	–
CSc1ccc(C(=O)NCC(c2ccco2)N(C)C)cc1[N+](=O)[O-] (stereo not given)	–	inactive: -2.13%
CCOc1ccccc1N(CC(=O)Nc1ccccc1F)S(=O)(=O)c1ccccc1	–	inactive: -13%
Cc1ccc(Oc2cc([N+](=O)[O-])cc3c2C(=O)Nc2ccccc2O3)cc1	inconclusive [cytotoxic, single point]	–
Cc1ccc2nc(N/N=C\c3ccc([N+](=O)[O-])o3)nc(-c3ccccc3)c2c1	–	inconclusive: 30.6%
CCOC(=O)[C@]12CCC=C1N(Cc1cccc3ccccc13)C(=O)[C@H](CC(=O)NCCC(C)C)C2	inconclusive [cytotoxic, single point]	–
N#C/C(=C\Nc1ccccc1O)c1nc2ccccc2o1	inconclusive [cytotoxic, single point]	–
CN1CCC(=NNC(=O)C(=O)Nc2ccc(F)cc2)CC1	inconclusive [rising, partial curve]	–
COc1ccc(C(=O)Oc2coc(CSc3nnc(NC(=O)c4cccs4)s3)cc2=O)cc1	inconclusive [cytotoxic, partial curve]	–
CCC(C)n1c(SCC(=O)N(CC)c2c(N)n(Cc3ccccc3)c(=O)[nH]c2=O)nc2ccccc2c1=O (stereo not given)	–	inconclusive: 1.1%
CCN(CC)c1ccc(/C=N/NC(=O)Nc2ccccc2)cc1	inconclusive [cytotoxic, single point]	–
CC(=O)N1c2ccc(S(=O)(=O)N3CCCC(C(=O)N4CCCCC4)C3)cc2CC1C (stereo not given)	–	inactive: 5.51%
Cc1csc(-c2cnn(-c3ccccc3)c2NC(=O)c2ccc(C(F)(F)F)cc2)n1	–	inactive: -1.87%
O=C(Nc1ccccc1)Nc1nc2ccccc2s1	inconclusive [cytotoxic, single point]	–
O=C(CSCc1ccccc1Cl)Nc1ccc2c(c1)OCCO2	–	inconclusive: 14.5%
Cc1cc(C)n2ncc(C(=O)Nc3cccc(O)c3)c2n1	inconclusive [rising, partial curve, poor fit]	–
